Data: paper PMC7105294, “STUB1 is targeted by the SUMO-interacting motif of EBNA1 to maintain Epstein-Barr Virus latency” (PLoS Pathogens, 2020)

Target: T1, GST-fusion wild type EBNA1 DBD (441-619) (Epstein-Barr virus, UniProt P03211 441-619)
T1 construct: source: E. coli BL21 (DE3), purified (Glutathione Sepharose)
T1 sequence: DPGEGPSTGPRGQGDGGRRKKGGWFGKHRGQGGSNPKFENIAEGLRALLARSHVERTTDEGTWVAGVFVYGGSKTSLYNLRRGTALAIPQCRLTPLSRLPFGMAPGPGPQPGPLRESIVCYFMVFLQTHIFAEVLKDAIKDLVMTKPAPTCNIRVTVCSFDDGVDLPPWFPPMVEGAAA
Test: pull-down; purified His-SUMO1/2 incubated with GST-fusion EBNA1 DBD proteins purified from E. coli, pulled down with Glutathione-sepharose beads; immunoblot
Conditions: both partners purified

B1: His-SUMO1 recombinant protein (natural protein)
chain: not shown
notes: also called His-tagged SUMO1; source: E. coli BL21 (DE3), purified (Ni-NTA agarose)
  binding result: binds
